This note sets out measurements from patent US12173057B2, “Antibodies and therapeutic uses thereof” (Ibex Biosciences, Inc., priority 2018, dated 2024).

One assay relates to MDA-MB-231 cells. Put plainly: ORIS cell migration (motility) assay. The assay is classed as cell-based, human. The following applies: for reduction in cell motility / biological activity, human chimeric versus murine mAbs: overall comparison, 1 μg/mL treatment. The protocol: Cell motility assays utilized the Platypus Technologies ORIS™ cell migration assay platform, which is generally described at platypustech.com/discoverAssay.html.
Specifically, the filamin-A antibodies of the present disclosure were evaluated in the ORIS™ cell migration assay, which used tri-coated 96 well plates (Platypus #CMATR1.101). Cells were seeded at approximately 50,000 cells/well. Cells were incubated overnight at 37° C. without CO2 in DMEM, in the case of HEK-293 cells, or L-15 containing 10% FBS, in the case of MDA-MB-231 cells. Stoppers covering cell growth chambers were removed with the ORIS™ stopper tool, growth media was removed, and wells were gently washed with 100 microliters of sterile PBS. Stoppers were left in place in reference wells until the staining step to serve as pre-migration controls. After washing, a 100 microliter volume of fresh culture media containing the specific treatment was added to each well. The cells were then allowed to incubate overnight. At the end of the incubation period, cells were fluorescently stained with Calcein AM for 30 minutes. Fluorescence was then measured using a microplate reader with a Detection Mask in place.
FIGS. 1 and 2 depict the relative fluorescence units (RFUs) present in the detection zones for each condition (mean+/−S.D., n=2 wells/condition).
Wells containing the cells existed in three formats: coated with collagen, coated with fibronectin, or a tissue culture (TC) treatment.
Well treatments were as follows: no antibody control, mouse antibody (mAb FLNA 1 mcg/ml), mouse antibody (mAb FLNA 20 mcg/ml), human chimeric antibody (hAb FLNA 1 mcg/ml), human chimeric antibody (hAb FLNA 20 mcg/ml), apicdin (100 nM), cytochalasin B (30 micromolar); see FIG. 1. An increase in the number of RFUs correlates with an increase in cellular motility.

The test system of another assay is filamin-A. Put plainly: Immunofluorescence assays with MDA-MB-231 breast cancer cell line. Type of assay: cell-based, human. As to the method:
Characterization of the filamin-A mAbs was performed using immunofluorescence assays with the MDA-MB-231 breast cancer cell line. […] For comparison, the AHO1402 mAb and another commercially available mAb, TI10 (Millipore MAB1680-C), were assayed at the same time.
The primary antibodies utilized in the immunofluorescence assays were as follows: • Anti-Filamin-A, clone TI10 (Millipore, p/n MAB1680-C) • Anti-Filamin-A, clone 209 #13 (Life Technologies, p/n AHO1402) • Anti-Filamin-A, mouse mAb • Anti-Filamin-A, human chimeric mAb • Anti-beta Actin, rabbit polyclonal (Rockland, p/n 600-401-886S)
Two primary methods of Immunofluorescence staining were utilized. The first method comprises single staining or double staining with methanol as a fixative and 0.2% Triton as a permeabilization agent, which is described in Alper et al. 2009. The second method utilizes a double staining technique with 2% paraformaldehyde as a fixative and 0.2% triton as a permeabilization agent.
Primary antibodies were incubated with the fixed and permeabilized cells for 1 hour at room temperature at a concentration of 1.25 mcg/ml. After one or more wash steps, secondary antibodies were incubated with the cells for 1 hour at room temperature. […]

Setting [1] is: fibronectin coated wells, 1 μg/mL.

B1: human chimeric antibody: human chimeric anti-filamin-A mAb of the disclosure; b310 names B185 and B411 without saying which gave the values (antibody)
heavy: EVKLVESGGGLVQPGGSLKLSCAASGFTFSSYTMSWVRQTPEKRLEWVAYISNGGGSTYYPDTVKGRFTISRDNAKNTLYLQMSSLKSEDTAMYYCASDGLLRPFAYWGQGTLVTVSA[human IgG1 constant region skipped]
light: DIVMTQSHKFMSTSVGDRVSITCKASQDVSIDVAWYQQKPGQSPKLLIYSASHRYTGVPDRFTGSGSGTDFTFTISGVQAEDLAVYFCQQHYSTPLTFGAGTKLELKRTVAAPSVFIFPPSDEQLKSGTASVVCLLNNFYPREAKVQWKVDNALQSGNSQESVTEQDSKDSTYSLSSTLTLSKADYEKHKVYACEVTHQGLSSPVTKSFNRGEC
In the case of B1, the “effect on cell motility” value in the assay with MDA-MB-231 cells (collagen coated wells) is “inhibitory effect on cell motility”. The “effect on cell migration” value in the assay with MDA-MB-231 cells (collagen treated wells, 1 μg/mL) is given as “reduction in cell migration”. In addition, the “difference in inhibiting cell motility, as compared to the murine antibody” value in the assay with MDA-MB-231 cells (setting [1]) was about 100%. In addition, the “effect on cell motility / cell migration” value in the assay with MDA-MB-231 cells (setting [1]) is recorded as “substantially lower level of cell motility than the murine antibody”; with MDA-MB-231 cells (fibronectin coated wells, 1 μg/mL, listed as human chimeric mAbs), “reduction in cell migration”. Further, the “cell motility (relative fluorescence units in detection zone)” value in the assay on MDA-MB-231 cells (fibronectin coated wells, antibody 1 μg/mL, overnight incubation) amounted to 106.26 RFU. Besides, the “reduction in cell motility / biological activity, human chimeric versus murine mAbs” value with MDA-MB-231 cells (listed as human chimeric mAb) was “greater reduction in cell motility than the murine mAbs”; in the assay on MDA-MB-231 cells (listed as human chimeric mAbs), “stronger biological activity than the murine mAbs”. Moreover, the immunofluorescence staining pattern entry is reported as “punctate staining pattern” with filamin-A (MDA-MB-231 cells, primary antibody 1.25 mcg/ml) and “reproduced the punctuate staining pattern” with filamin-A (first method: methanol fixative, 0.2% Triton permeabilization).
